Some of the results follow. Values were computed here from the reads of four pooled replicates and scatter widely.
target: T1, Pho4 (S. cerevisiae) (UniProt P07270); assay: relative binding free energy (BET-seq); higher = weaker binding; conditions: reference: library average
T1 sequence: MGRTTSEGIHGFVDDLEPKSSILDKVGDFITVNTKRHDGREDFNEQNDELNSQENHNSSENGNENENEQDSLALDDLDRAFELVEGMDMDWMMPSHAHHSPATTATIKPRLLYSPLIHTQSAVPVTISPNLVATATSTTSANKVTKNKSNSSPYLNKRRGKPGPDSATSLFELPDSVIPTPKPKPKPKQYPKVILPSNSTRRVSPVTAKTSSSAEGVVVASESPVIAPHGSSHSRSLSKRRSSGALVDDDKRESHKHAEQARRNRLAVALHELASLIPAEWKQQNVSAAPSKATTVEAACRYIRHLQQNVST

Sequence	relative binding free energy [kJ/mol]
GAGCGCACGTGGGTGC	-0.795
TCCAGCACGTGGGGGG	-1.38
AGTTGCACGTGCCAGT	0.335
ACTTCCACGTGGGGTG	-0.0837
TTATGCACGTGTAGTA	0.126
GTTGTCACGTGGCATA	0.418
AGGCGCACGTGTGTGT	-0.669
GGTTGCACGTGGACTT	0.669
ATGAGCACGTGGTCTG	-0.795
CGTGTCACGTGGCTTA	-0.167
ATCGTCACGTGTAAAT	1.26
GTGAACACGTGGTATT	-0.0837
TGTATCACGTGTGGAA	0.628
TCGTTCACGTGGGGCT	0.126
TTACTCACGTGTTGAG	0.92
AGAGTCACGTGAAGGA	0.962
CTGTGCACGTGGGGCA	-1.17
GGAGACACGTGTGTGT	0.502
GGCGGCACGTGAGTGC	0.46
TGTTTCACGTGCGTAT	0.628
TGGGGCACGTGGTAAT	-0.46
TGTTACACGTGAGTCT	0.92
CTTGTCACGTGGTATT	-0.502
GGTTTCACGTGCGGGC	1.17
TGTCTCACGTGTTTTC	1.38
CGCTGCACGTGTAGGT	0

Sequence	relative binding free energy [kJ/mol]
GGAGTCACGTGGCGTT	0.167
TTATACACGTGGAGGC	0.544
TGCTACACGTGGTTAG	0.167
TTGTACACGTGCAATT	0.126
TGAATCACGTGGTCTG	0.335
TTTGCCACGTGATGGA	0.502
TATCTCACGTGGGCTT	0.46
ATATTCACGTGCTGGG	0.669
GGGTACACGTGTAATA	0.711
GTTGTCACGTGCGTGT	0.418
CAGCGCACGTGGAGGG	-0.879
TTGGACACGTGGCAGG	-0.251
TGGGTCACGTGAAGTT	1.63
CCGGGCACGTGTTTGG	-0.418
ATTATCACGTGGGCTT	-0.167
TCTGACACGTGGGTAG	-0.586
TACGTCACGTGTATGA	0.335
CTGGTCACGTGTAAAG	1
TTGGTCACGTGGGGGT	0.377
TGTGGCACGTGTAAAT	0.126
AGTCTCACGTGTGGGG	0.586
GGAAGCACGTGAATGG	0.502
TACGTCACGTGAAGGT	1.42
GCGTACACGTGTGGTG	0.502
TTTTCCACGTGTGCTT	0.167
ATTGGCACGTGGATAA	-0.669

Sequence	relative binding free energy [kJ/mol]
AGTTGCACGTGTAGTT	0.377
TTGAACACGTGGAGCG	-0.0418
CATGTCACGTGATAGT	0.377
TAATGCACGTGGGTGC	-1.34
TTTGGCACGTGATGGC	-0.126
TTTGTCACGTGGATCT	0.251
TATCGCACGTGGGGTT	-0.962
GTAAGCACGTGTAATG	-0.0418
CGTTACACGTGTGTGT	-0.0837
ACGGACACGTGTTTTG	0.335
ATCTTCACGTGGGGTT	0.502
TGCGGCACGTGTGTCT	-0.167
GGGATCACGTGTATAT	0.753
TAGCTCACGTGGGTTT	0.544
CTAGTCACGTGAGAGG	0.753
TCGGGCACGTGCGAAG	0.209
TGTATCACGTGTGGGT	0.92
ATTTTCACGTGGTGAA	0.669
GGGTTCACGTGGGGCG	0.837
TCGAACACGTGGTAGG	0.46
CTGGCCACGTGTAGTG	-0.209
CTTATCACGTGGAGGT	0
TGATGCACGTGGAGGT	0
ATGTACACGTGTGTCT	0.669
TGTTTCACGTGAACTT	1.09
ATGTTCACGTGCGGTG	1.21

Sequence	relative binding free energy [kJ/mol]
TTTGTCACGTGGTCGA	-0.418
AACGGCACGTGTGCGT	-0.418
GAGTGCACGTGAGGGG	1.05
GGGTGCACGTGGTAAC	-0.335
GAGTGCACGTGATAGA	1.13
TGTTGCACGTGCCGAG	-0.335
TTCTTCACGTGGGCGG	0.628
AAATTCACGTGATGGT	1
ATAGGCACGTGGGAGT	-0.544
TTTAGCACGTGCATGG	-0.209
TATTTCACGTGATCGT	1.26
CTCTTCACGTGGTGGG	0.92
GTCGTCACGTGAGGTT	0.837
TTGAACACGTGCTCGG	0.335
TGGTGCACGTGCTTCT	-0.293
AATCGCACGTGTGATG	0.418
AAAGGCACGTGAGATT	0.879
GGTTACACGTGGCTAG	0.251
AGGGTCACGTGGGACA	0
TTGGGCACGTGCAGTT	0.0837
GCGGGCACGTGGAGTA	-0.377
GGGCACACGTGCGGGT	-0.126
GTGGGCACGTGTTGGC	0.209
TTGCACACGTGGTTGG	-0.0837
GTGGGCACGTGGAGGT	-0.126
TAGTTCACGTGTGTGG	1.3

Sequence	relative binding free energy [kJ/mol]
CCTGGCACGTGTTGAG	-0.0418
TAGGTCACGTGGTATT	0.0418
AGGTACACGTGTAGAT	1.38
GTTGACACGTGGATAG	0.628
ATGGACACGTGGCGTG	-0.92
ACATTCACGTGAGGTT	1.17
ATATACACGTGGGCGT	-0.711
TTTGTCACGTGGTCTT	0.669
ATTATCACGTGGGGTG	-0.293
GTAAACACGTGTGTTC	0.418
TGGGCCACGTGATCGT	0.209
TTGGCCACGTGCAAGG	0.502
TAGCCCACGTGTGGTT	0.0837
TATCTCACGTGATATG	1.51
GTTGGCACGTGGGCCA	-0.251
CTCGGCACGTGGTGCG	-0.711
GGAATCACGTGGGATG	0.0837
ATTAACACGTGTTAGG	-0.251
GGTTACACGTGTTGAA	0.837
AATTGCACGTGAATTT	1.51
TGTAGCACGTGTGTTG	-0.251
ATGGTCACGTGTTTGG	0.46
GGTGTCACGTGACGTG	1.13
TGTCTCACGTGAGTAT	1.46
TGGGCCACGTGCTGTA	-0.795
GGGGGCACGTGATGCT	-0.209

Sequence	relative binding free energy [kJ/mol]
GCGGTCACGTGTGGTC	0.962
TACGTCACGTGATTGG	0.418
TCTGACACGTGTGTTG	0.251
TGCGTCACGTGTTAGT	0.418
ATAGTCACGTGTTCAT	0.46
GCTGACACGTGGTTTT	0.126
CGTTTCACGTGTTGGA	1.63
AGTTGCACGTGAGTTA	0.753
ACGTGCACGTGGTATT	-0.711
GGTGTCACGTGGAGAA	0.628
GCGGTCACGTGAGTTG	1.3
GGGATCACGTGCTGGT	0.586
TTTTACACGTGGGCCG	0.251
CTTGGCACGTGGTGAA	-0.628
TTGGTCACGTGGATTG	0.669
TGTTTCACGTGACGAT	1.13
TGCGGCACGTGCGGAT	-0.586
TGATTCACGTGTTAGC	0.711
GGAGGCACGTGTAGTT	-0.293
TGGGGCACGTGTCACT	-0.711
CGCATCACGTGGGTTG	-0.418
AGATTCACGTGTCGTA	1.46
AATTGCACGTGTAGTT	0.126
GGGTACACGTGAAGGC	1.59
TAGATCACGTGGAAGT	0.753
TGATTCACGTGCTTGG	0.669

Sequence	relative binding free energy [kJ/mol]
TGGAACACGTGCATGG	0.0837
GACGGCACGTGAGTAG	1.3
AGTGCCACGTGTTGAG	-0.209
ATAATCACGTGTGCAG	0.879
TAGTTCACGTGGATGA	1
TTTTACACGTGTGCGT	0.711
ACTGGCACGTGAGTGT	0.669
GGTTTCACGTGCAGTG	1.26
AAGTTCACGTGATTTT	1.21
ATGGGCACGTGGGGAT	-0.544
GGCTTCACGTGATATG	1.63
GGGTACACGTGTATCG	0.502
TGGCCCACGTGGGTAG	-0.795
TGGTTCACGTGTGTAA	1.05
CTGGGCACGTGGGGGA	-0.92
TTTGTCACGTGTCCTG	0.418
ATGGCCACGTGTAGGA	0.0418
GTCGTCACGTGTTTCG	0.837
TGCGCCACGTGGGGTT	-0.628
CGTATCACGTGGGGTT	0.0837
TGGCGCACGTGTGCGG	-0.628
GTACACACGTGATGTT	0.92
AGATGCACGTGGGTCA	0.0418
GGGAGCACGTGTTGAA	0.126
GTTTACACGTGATTGT	0.962
GGCTTCACGTGTTGGC	1.17

Sequence	relative binding free energy [kJ/mol]
AGGGCCACGTGTATAT	0.126
TGGTCCACGTGTCGGG	-0.293
TCGGTCACGTGCTCGG	0.544
TGATTCACGTGGTTGT	1.21
TATGGCACGTGAGTAC	0.377
GAATTCACGTGGTAAT	1.42
TATAACACGTGATAGT	0.46
TTGCGCACGTGTTGGA	0.251
TTTTTCACGTGCTAGG	0.628
GTCGACACGTGGGTTA	-0.167
CAGTGCACGTGTGTTT	0.377
TAAGTCACGTGTTTGT	0.293
GGATTCACGTGTGTGA	0.92
ATGGTCACGTGCGGTA	0.126
TGTTACACGTGAGTTA	0.962
TTTAGCACGTGGCATG	-0.377
GGACTCACGTGTTAGG	0.795
TGAGTCACGTGCAGTG	0.377
ATCGTCACGTGGATTG	0.377
TGGGGCACGTGTAATT	0.251
TAGGGCACGTGTAATT	0.251
TATTTCACGTGGCGCT	0.962
CCTGGCACGTGGGGCT	-0.962
GAATACACGTGTTTTA	0.628
TATGGCACGTGGTGCG	-0.795
GTCGGCACGTGTAGGC	0.879

Sequence	relative binding free energy [kJ/mol]
GATGCCACGTGGGGCT	-0.586
GCGGACACGTGAGGTT	1.26
TGGTCCACGTGGACTG	0.293
ATGGCCACGTGTCGTG	-0.418
TTTGACACGTGTGGTG	0.335
TGTAACACGTGAAGTG	0.795
TTTGGCACGTGTAAGT	0.209
ATTAACACGTGTTTTT	0
ATGATCACGTGAATTT	1.21
AAAGTCACGTGAAGAG	2.18
CTGGTCACGTGGGCGG	0
ATGTACACGTGGGAAT	0.126
GTAATCACGTGTAGGC	0.711
TAAGTCACGTGGGGGA	-0.0837
TGCATCACGTGCGTGG	-0.0418
TTTAACACGTGGTACA	0.0418
CAGTGCACGTGTTGTA	0
AGGTTCACGTGAGGTT	1.59
AGTGCCACGTGGTCGT	-1.09
TAGGTCACGTGGTTGG	0.0418
GGTTTCACGTGAGGGT	1.34
AGATGCACGTGTGGCG	-0.167
